Among all 150,000 compounds or so, about 540 (0.36%) showed an effect of 50% or more. The list shows a part of the results.

For this assay, the system named is Plasmodium falciparum. Briefly: Primary screen in NF54 nanoGlo assay, in single point, at 2uM, 72h; a lower Z score goes with more inhibition. Type of assay: functional, Erythrocyte. The following applies: timepoint 72 hour.
Take `C=CCN1C[C@H]2CN(Cc3cc(OC)c(OCC)cc3Cl)C[C@@]2(C(=O)O)C1`: the “% Inhibition” value is on record as -11% and the Z score was found to be 1.46.

In the case of `C=CCn1nc(C(=O)N2CCN(C)CC2)c2c1CC[C@H](N1CCC(C)CC1)C2`, the “% Inhibition” value is -13% and the Z score amounted to 1.49.

Turning to `C[C@H](NC(=O)C1CCCC1)C(=O)NC1(C)CCCC1`, the “% Inhibition” value was -11% and the Z score is 1.58.

As to `O=C(NCc1nc(Cc2cccs2)no1)N1CCS(=O)(=O)CC1`, the “% Inhibition” value was -10% and the Z score was determined as 1.84.

Turning to `Cc1cccc(NC(=O)NC2CCN([C@@H](C)c3ccncc3)CC2)n1`, the “% Inhibition” value was -9% and the Z score amounted to 0.95.

Regarding `CC(C)(C)C(=O)CNC(=O)C1(Oc2ccc3ncccc3c2)CCNCC1`, the “% Inhibition” value was -14% and the Z score stood at 1.36.

As to `CN(C)c1ccccc1NC(=O)NC1CCCCC1`, the “% Inhibition” value is listed as 1% and the Z score is -0.22.

In the case of `COc1cnc(-c2cccc(C(F)(F)F)c2)nc1Oc1ccccc1`, the “% Inhibition” value was -5% and the Z score was 0.6.

On to `CC(C)C[C@@H]1NC(=O)[C@@H](Cc2ccccc2)NC(=O)Cc2ccc(F)c(c2)Oc2ccc(cc2)C[C@@H](C(=O)N(C)Cc2cccnc2)NC1=O`, for which the “% Inhibition” value is -18% and the Z score is recorded as 2.32.

`CN(Cc1cccnc1)c1cc([C@H]2C[C@@H](N)C2)nc(N2CCCC2)n1`: the “% Inhibition” value was 19% and the Z score is given as -2.83.

Turning to `COc1ccc(C(=O)N[C@@H]2CCC[C@@H]2C(=O)N2CCN(C(=O)c3ccco3)CC2)cn1`, the “% Inhibition” value was -5% and the Z score is given as 0.71.

With `O=C(CN1C(=O)COc2ccc(C(=O)N3CCCC3)cc21)N1CCN(c2ncccn2)CC1`, the “% Inhibition” value is reported as -4% and the Z score is on record as 0.47.

As to `Cc1cc(F)ccc1S(=O)(=O)N1CC2CCC1(CN)CC2`, the “% Inhibition” value was 2% and the Z score is -0.21.

On to `Cn1ccnc1C(O)C1CCCN(CC(=O)NCC(F)(F)F)C1` (stereo not given), for which the “% Inhibition” value is on record as 0% and the Z score was 0.05.

For the compound `N#Cc1cccnc1N(CC(=O)N1CCCC1)C[C@H]1CCCO1`, the “% Inhibition” value is recorded as -5% and the Z score amounted to 0.7.

As to `Cn1nnnc1-c1ccc(NC(=O)N2CC[C@H]2C2CCCC2)cc1`, the “% Inhibition” value is -1% and the Z score worked out at 0.16.

On to `COc1cccc(-c2nc(C(N)=O)c3c(n2)n(-c2ccc(C)c(C)c2)c(=O)n3Cc2ccccc2)c1`, for which the “% Inhibition” value is recorded as -6% and the Z score turned out to be 0.72.

As for `CC(C)c1nccc(CN(C)Cc2ccc(CN(C)C)cc2)n1`, the “% Inhibition” value is 2% and the Z score is -0.46.

On to `CC(=O)N(c1ccc2oc(=O)sc2c1)S(=O)(=O)c1cccs1`, for which the “% Inhibition” value is on record as -35% and the Z score is recorded as 4.73.

Regarding `CC(C)=CCN1CC2(CCN(c3nc(C(N)=O)cs3)CC2)CC1=O`, the “% Inhibition” value is -1% and the Z score came out at 0.13.

On to `Cc1ccc(NC(=O)N2CCCCCCC2)c(Cl)c1`, for which the “% Inhibition” value is given as -6% and the Z score came to 0.75.

For `Cc1c(C2=NO[C@H]3C(=O)N(c4ccc(Cl)cc4)C(=O)[C@@H]23)cnn1C`, the “% Inhibition” value is -7% and the Z score is reported as 1.

Regarding `O=C(c1ccncc1F)N1CCN(c2cnsn2)CC1`, the “% Inhibition” value is -22% and the Z score is 2.79.

Consider `COCc1noc(CNS(=O)(=O)c2cccc(C(=O)N3CCCC3)c2)n1`, for which the “% Inhibition” value is -9% and the Z score came to 1.68.

For `CC(=O)N(CCN1CCOCC1)CC(=O)Nc1nc(-c2ccccc2)cn1-c1ccc(C(C)C)cc1`, the “% Inhibition” value is -2% and the Z score is given as 0.28.

For `Cc1ccc(S(=O)(=O)N2CCC([C@H](NC(=O)c3cccs3)C(=O)N3CCCCC3)CC2)cc1`, the “% Inhibition” value is recorded as -7% and the Z score stood at 1.28.

With `COC(=O)c1ccc(NC(=O)NCC2(O)CCCCC2)cc1Cl`, the “% Inhibition” value is on record as -3% and the Z score amounted to 0.38.

For `CCOC[C@@H](O)Cn1nnnc1-c1ccccn1`, the “% Inhibition” value is -9% and the Z score amounted to 1.29.

With `COCCN1C[C@@H](CNC(=O)Nc2cccc3nsnc23)CC1=O`, the “% Inhibition” value is -4% and the Z score is listed as 0.67.

With `CCn1ncnc1[C@H](C)NC(=O)c1ccnc(C(C)C)n1`, the “% Inhibition” value is on record as -12% and the Z score turned out to be 1.87.

With `COCCN(C/C=C/c1ccc(OC)cc1)CC1CCN(Cc2ccccc2OC)CC1`, the “% Inhibition” value is -7% and the Z score was 1.06.

As to `O=C(N[C@@H]1CCC[C@H]1OCc1ccccc1)c1cnn[nH]1`, the “% Inhibition” value is reported as -5% and the Z score was determined as 0.88.

On to `CCN1Cc2ccccc2C[C@H]1c1nc(-c2ccco2)nn1CCO`, for which the “% Inhibition” value was -6% and the Z score is 1.06.

For the compound `O=C(NCCc1ccc2c(c1)OCO2)C1CC2CCC1C2` (stereo not given), the “% Inhibition” value is -4% and the Z score was 0.49.

Consider `CC(C)n1cc2cc(C(=O)NCCc3ccc(Cl)cc3)sc2c1`, for which the “% Inhibition” value is listed as 1% and the Z score is -0.23.

As for `N#Cc1ccccc1C(=O)N1C[C@H]2CCC[C@@H](C2)C1`, the “% Inhibition” value is recorded as -9% and the Z score is reported as 1.57.

On to `Clc1ccc(-c2cc3c(N4CCCCCC4)nccn3n2)cc1`, for which the “% Inhibition” value is recorded as -4% and the Z score is given as 0.53.

In the case of `C#C[C@@H](NC(=O)c1cnc2n1CCOC2)C1CCOCC1`, the “% Inhibition” value was -11% and the Z score stood at 1.63.

Consider `COC[C@@H]1[C@H](C(=O)NC2CCCC2)CCC(=O)N1C`, for which the “% Inhibition” value is -4% and the Z score was 0.47.

Take `O=C(Nc1ccc(N2C(=O)CCCC2=O)cc1)c1cc(-c2cccc(Cl)c2)no1`: the “% Inhibition” value was -13% and the Z score came to 1.36.

The term % Inhibition denotes the drop in the measured response relative to a control, in per cent.

The values are drawn from ChEMBL document CHEMBL4888484, “Replenishing the malaria drug discovery pipeline: Screening and hit evaluation of the MMV Hit Generation Library 1 (HGL1) against asexual blood stage Plasmodium falciparum ,using a nano luciferase reporter read-out” (2022).
